In all, about 33,000 sequences were measured (“E-score (-0.5 to 0.5)”: median about -0.054, highest 2% from about 0.35 on). The list shows a part of the results.
Target: T1, Stb5 (UniProt P38699)
T1 sequence: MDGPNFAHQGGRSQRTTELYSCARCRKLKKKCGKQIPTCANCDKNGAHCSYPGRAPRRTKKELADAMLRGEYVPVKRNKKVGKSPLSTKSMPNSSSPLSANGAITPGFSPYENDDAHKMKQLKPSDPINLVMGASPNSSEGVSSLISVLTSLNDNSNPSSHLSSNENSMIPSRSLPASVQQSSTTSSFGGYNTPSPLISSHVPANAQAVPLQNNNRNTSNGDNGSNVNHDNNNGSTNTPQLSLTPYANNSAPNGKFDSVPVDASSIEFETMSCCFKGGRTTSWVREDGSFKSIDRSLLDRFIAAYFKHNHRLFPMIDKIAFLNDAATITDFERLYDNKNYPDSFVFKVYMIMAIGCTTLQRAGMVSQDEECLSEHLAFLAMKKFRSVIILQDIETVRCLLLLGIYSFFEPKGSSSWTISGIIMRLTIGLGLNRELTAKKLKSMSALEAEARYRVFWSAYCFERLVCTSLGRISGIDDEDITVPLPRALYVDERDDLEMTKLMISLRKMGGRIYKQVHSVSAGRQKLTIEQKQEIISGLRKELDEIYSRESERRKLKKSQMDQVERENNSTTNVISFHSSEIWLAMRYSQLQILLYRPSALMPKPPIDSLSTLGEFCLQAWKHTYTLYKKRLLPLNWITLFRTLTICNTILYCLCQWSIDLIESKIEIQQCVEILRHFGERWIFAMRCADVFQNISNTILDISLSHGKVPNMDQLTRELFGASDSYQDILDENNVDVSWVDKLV
Experiment: PBM E-score (8-mer binding enrichment) (E-score (-0.5 to 0.5)); higher = stronger / more preferred TF binding; most listed sequences are background and not binding sites
Conditions: protein concentration: 200 nM; construct: GST-full length
Summary of the method: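 Detection of bound protein used fluorescent anti-GST, with scans normalised by masliner. The proteins were GST-tagged yeast transcription factors applied at about 100-200 nM to universal all-10-mer Agilent arrays made double-stranded by primer extension. Each ungapped eight-base word, pooled with its reverse complement, was scored with an E-score from the Universal PBM Analysis Suite.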

Sequence	PBM E-score
GATCGGGC	0.301
ACCGCGCT	0.338
ACTGCGGA	0.17
CCGACTGC	0.248
ATCTGCAA	-0.324
ACTCAGCT	-0.164
AGGAACGA	-0.012
ACTCTCGC	-0.0859
AGAGACGC	0.0892
CGGTTGAA	0.104
GCTATGCA	-0.233
AGTGGAGG	-0.0503
ACATGCGG	0.145
ATCGGAGG	0.181
ATTCTCAC	-0.0802
GTACAGGA	0.12
ACTGTAAT	-0.0979
ACGCCGTG	0.297
ATCTACTC	-0.116
CTAGAGCA	-0.188
CATGTTAA	-0.0547
ATTAGGCC	0.193

Sequence	PBM E-score
ATCCCGAG	0.161
GAGGAATA	0.00092
GGGCGACA	-0.0122
AATCATCG	0.0623
GCCGCGAC	0.171
TAGAATGA	-0.208
GTACTACA	-0.137
ACTTTTTG	-0.21
ACCAGTCC	-0.0506
AGCTACTA	-0.162
CACTTGAC	-0.0826
GACTTATC	0.0388
CGGTCCAC	0.0803
GGGCACGA	-0.144
AAGAGCCG	0.308
GCCCCGGC	0.224
CTTCTTTC	-0.178
GCGCGAGA	0.00096
CGTCAAGA	-0.0977
TAGACCTA	-0.189
GCTTAAGC	-0.166
CTCGGATA	0.0597

Sequence	PBM E-score
CGTAAACC	0.106
TGAGGTAA	-0.083
ATGGGGTC	0.025
CAATAATC	0.00884
AAAGGAGG	-0.279
CGAGGGCC	0.0441
ATGATCAT	-0.168
AGGCCGGA	0.314
GATACACC	0.213
CATAGACG	-0.00914
ACGAACGT	-0.105
CGGAAACA	0.216
GAAGTCTC	-0.255
AACAGTGT	-0.312
AGCCACAT	-0.396
CGCGACAA	0.019
CCCATTTA	-0.0583
CACAAGCC	-0.146
CGACGATC	-0.058
ACGTCACT	-0.111
GATTTGGC	-0.187
CTCACTTC	-0.136

Sequence	PBM E-score
ATGCCCGA	0.248
AGCATAGA	-0.0257
TAATATTA	0.113
ATCGCAAT	-0.0999
CCTCTCGC	-0.241
CGGCGCAA	0.263
CCACATAA	0.115
ATATTAAG	-0.0435
GCAACGCC	0.0389
AAATGACC	0.141
AAAACTTT	0.0714
CACTGGTC	-0.166
AACGGCCA	0.083
GCGTCAAA	0.0482
CGGTTACC	0.157
ACACGCGT	-0.259
AGTTGCTC	-0.181
CGAAACGC	0.099
GAATGCCA	-0.194
AGTAGCGG	0.324
